Measured values as given in the supplement of paper PMC10126150.
Values marked as one replicate rest on one cluster of the flow cell; about a third of the high ones do not repeat.

system: ATP; assay: switch fluorescence ratio, 500 uM ATP over buffer (Cy3 cluster intensity, sum of 5 cycles each) (fold (ratio)); higher = stronger signal-on switching upon ATP binding; sequences stand for … in TCGTCGGCAGCGTCAGATGTGTATAAGAGACAGTTTTTTTTTTTTTTTTTTTTTTTTT…TC; details: aptamer strand: ATP DNA aptamer (quencher-CACCTGGGGGAGTATTGCGGAGGAAGG + anchor), 100 nM annealed; ATP concentration: 500 uM; one replicate
In short: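 For every switch-domain sequence, the fluorescence ratio is the mean of per-cluster values, each being summed target-cycle Cy3 intensity over summed buffer-cycle Cy3 intensity. Clusters outside 100-1000 RFU were excluded. On a modified Illumina MiSeq flow-cell, the Cy3-labelled switching-strand clusters were annealed to 100 nM quencher-labelled ATP aptamer, imaged in selection buffer and then after 15 min with 500 uM ATP at 22 °C. Five such cycles were run, with NaOH stripping and re-annealing between them.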
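Also: ATP exposure 15 min at 22 °C before imaging.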

Sequence | switch fluorescence ratio
TGATGGAGTT | 0.971
TGATGGGGAA | 0.96
TGATGGGTGG | 0.985
TGATGGTCGG | 0.949
TGATGGTGAC | 1.08
TGATGGTTTT | 0.96
TGATGTAAGA | 0.965
TGATGTGCCC | 1.01
TGATGTTGTG | 0.988
TGATTAACGT | 1.03
TGATTACGGG | 1.06
TGATTAGGCT | 0.993
TGATTAGTGC | 1
TGATTCACGC | 1.04
TGATTCGACT | 0.994
TGATTGATGC | 1
TGATTGGAGT | 0.972
TGATTGTAGA | 1.01
TGATTTACGT | 1.04
TGATTTGATA | 1.01
TGATTTTGAA | 1.03
TGCAAAACTA | 1.04
TGCAAAAGTG | 0.97
TGCAAAATTA | 1.01
TGCAAGAGGA | 1.07
TGCAAGGACC | 1.09

Sequence | switch fluorescence ratio
TGCAAGGTGG | 1.04
TGCACAATTG | 1.01
TGCACCGCAT | 2.28
TGCACGAGGT | 0.997
TGCACGCCTA | 1.03
TGCACGGCGT | 0.985
TGCACTCGTA | 1.02
TGCAGCACGC | 1.52
TGCAGCCACC | 1.15
TGCAGCCAGT | 0.981
TGCAGCCGCG | 1.03
TGCAGCCTAA | 1.02
TGCAGCGACG | 0.965
TGCAGGCTGA | 0.944
TGCAGGGAGC | 0.987
TGCAGGGCG | 0.991
TGCAGTCACG | 0.98
TGCAGTCTGG | 1.18
TGCAGTGCTG | 0.973
TGCATAAGGC | 0.991
TGCATATGCG | 0.98
TGCATGCGTT | 1.03
TGCATGTATG | 0.991
TGCATTAGGT | 0.979
TGCATTTAAC | 1.08
TGCCAAGAGG | 1

Sequence | switch fluorescence ratio
TGCCACTATT | 0.976
TGCCAGAGA | 1
TGCCAGATGG | 1.04
TGCCAGGAAG | 1.01
TGCCATCTAT | 0.975
TGCCATGGAC | 1.06
TGCCATTGAA | 0.993
TGCCATTTTG | 0.962
TGCCATTTTT | 1.05
TGCCCCCAGA | 1.84
TGCCCCGGAA | 1.8
TGCCCGAACT | 0.998
TGCCCGGCGG | 0.946
TGCCCTGG | 1.04
TGCCCTTCTT | 0.949
TGCCGAGTA | 1.05
TGCCGATGT | 0.976
TGCCGATTAG | 0.988
TGCCGCTCAG | 1.06
TGCCGGCCAG | 0.974
TGCCGTCTGC | 0.944
TGCCGTGATA | 1.23
TGCCGTTCAG | 1.05
TGCCTAGCAC | 1.03
TGCCTAGCCT | 1.01
